Screen size: about 150,000 compounds; about 540 (0.36%) showed an effect of 50% or more. This is one part of the list.
Tested on: Plasmodium falciparum
Assay: Primary screen in NF54 nanoGlo assay, in single point, at 2uM, 72h; a lower Z score goes with more inhibition
Assay type: functional, Erythrocyte
Settings: timepoint 72 hour

Structure (SMILES)	% Inhibition [%]	Z score
Cc1ccc(-c2nc(CC(=O)N3CCC(C(C)(C)C)C(O)C3)cs2)o1 (stereo not given)	-3	0.35
Fc1ccc(-c2cc3c(N4CCCCC4)nccn3n2)cc1	34	-1.33
Cc1nn(C)cc1[C@H](C)n1ccnc1-c1coc(-c2ccccc2)n1	-9	1.63
CC[C@H](C)N(Cc1cc(Cl)ccc1OS(C)(=O)=O)C(=O)CC(C)(C)C	-7	0.66
Cc1nnc(CN(C)C(=O)c2c(C)oc3ccc(OCc4ccccc4)cc23)o1	-14	2.18
Cc1ccc2c(Nc3ccc(C)c(C)c3)c(C(=O)N3CCOCC3)cnc2n1	-6	1.09
CC(C)c1cc(NCCn2ccc(=O)[nH]c2=O)ncn1	-1	0.09
CC(C)N(C)c1ccc(NC(=O)c2cccnc2O)cc1F	-6	0.6
C[C@@H]1CN(C(=O)c2ccc(Cl)o2)CC[C@@]1(O)C1CCOCC1	-3	0.52
O=C(c1cn2cccnc2n1)N1CCCCCC1	-17	3.07
O=C(NCCn1cncn1)c1cc(=O)[nH]c2cc(F)ccc12	10	-1.33
O=c1[nH]nc(CCNCc2cnc(-c3ccc4ccccc4c3)nc2)[nH]1	-5	0.71
O=C(O)[C@@H]1CCCCC[C@@H]1NS(=O)(=O)c1cccc(F)c1F	1	-0.08
NC(=NCc1ccc(O)c(Br)c1)NC1CCCCCC1	-12	1.32
COCc1nc([C@@H]2CCCCCN2C(=O)c2cccc(NC(C)=O)c2)no1	-2	0.25
Cc1cc(C)c(CNC(=O)OCC(F)(F)F)c(=O)[nH]1	-1	0.18
COc1c(F)cc(NC(=O)N(C)C2CC[S+]([O-])CC2)cc1F (stereo not given)	0	-0.04
O=C(NCC1CCCO1)C1Cc2cc(C(F)(F)F)ccc2N2CCN(Cc3ccc(F)cc3)CC12 (stereo not given)	21	-2.58
CCS(=O)(=O)NCc1nnc(C(=O)Nc2ccc(F)cc2F)s1	4	-0.61
CCO[C@@H](C)c1nc(-c2cc(C(=O)N(C)C)cs2)cs1	-13	1.77
Cc1nn(C)c(C)c1OC(=O)COc1ccccc1	3	-0.35
COC(=O)[C@@H]1C[C@@H](NC(=O)c2ccccc2C(F)(F)F)CN1	4	-0.84

Structure (SMILES)	% Inhibition [%]	Z score
CC(C)(Oc1ccc(C#N)cc1)c1nc([C@@H]2CCCO2)no1	20	-2.54
O=C(NC1CCCCC1)N1C[C@@H]2C[C@H](C1)c1c(NS(=O)(=O)c3cccc(F)c3)ccc(=O)n1C2	3	-0.42
C[C@@H](NC(=O)Nc1ccc(Cl)c(Cl)c1)C(=O)O	32	-0.74
COc1ccc(OC)c2c1nc([C@H](C)O)n2C	-6	0.91
COc1ccc([C@H]2CC(=O)Nc3ccsc32)cc1O	-13	1.91
CC[C@H](C)N(Cc1c(C)nn(-c2ccccc2)c1N1CCN(CC)CC1)C(=O)Cc1ccc(F)cc1	8	-1.04
CCOC(=O)CN1C(=O)N(c2cccc(C)c2)c2ncccc2S1(=O)=O	0	-0.06
CC(C)(C)[C@@H]1CS(=O)(=O)CCN1C(=O)c1ccnc2ccnn12	0	0.01
CCOC(=O)C[C@H](C)NC(=O)c1c(C)cc(C)cc1C	3	-0.43
O=S1(=O)CC[C@H](Nc2ncc(F)cn2)C1	-4	0.7
O=C(NCC1(c2cccs2)CC1)NC1CCOCC1	-21	2.45
N#CCCCn1nc(C(F)(F)F)ccc1=O	-11	1.43
Cc1cc(N(C)C)cc(C)c1NC(=O)N1CCCC[C@@H]1CCc1ccccc1	-11	1.32
Cn1cc(-c2cn(Cc3cscn3)nn2)cn1	2	-0.31
COc1cc2c(cc1OC)CN(C(=O)c1ccc(-n3cccn3)nn1)CC2	6	-1.06
CC(C)(C)c1cnc(CN2CCC(C(=O)Nc3ncccn3)CC2)o1	-7	0.85
Cn1cncc1CCC(=O)N[C@H]1CC2(CCCC2)Oc2ccccc21	-6	0.73
CC(C)(C)NC(=O)CNC(=O)c1coc(CC2CC2)n1	-6	1.03
O=C(c1cccc(-c2cn[nH]c2)c1)N1CCC(F)(F)CC1	-4	0.62
CCS(=O)(=O)c1c[nH]c(=O)c(C(=O)N2CCc3cccc(C)c32)c1	-2	0.38
Cc1n[nH]c(C2CCN(C3CCN(c4ccc(C)c(Cl)c4)CC3)CC2)n1	3	-0.47
CCCn1c(-c2cccc(C(=O)NCc3ccc(C)c(C)c3)c2)nc2cccnc21	-8	1.09

Structure (SMILES)	% Inhibition [%]	Z score
O=C(NS(=O)(=O)C1CCCCC1)c1ccnn1CC(F)(F)F	-7	0.95
O=C1N[C@@]2(CCCN(C(=O)C3CCC3)C2)N=C1c1ccccc1	0	-0.09
CCCc1nc2cc(CCC(=O)NC3CCCC3)ccc2[nH]1	-6	0.73
CN(C(=O)Cn1cnc2c(c1=O)CCC2)c1ccccc1	-13	1.32
Cc1n[nH]cc1CNCc1csc(C(F)(F)F)c1	4	-0.69
Cc1noc(C)c1CNCCc1ccccn1	-10	1.39
CS(=O)(=O)C1(C(=O)NCCc2cccc3cccnc23)CCCC1	1	-0.24
Cc1nnc(CN(C)C(=O)CCc2cccnc2)o1	-3	0.49
CCn1ncc(C)c1NC(=O)CCc1ccnn1C	-14	2.63
Cc1cccc(OCCCN(C)C(=O)CCS(C)(=O)=O)c1C	-4	0.55
O=C(NC1CC1)c1cc2ccccc2cc1O	-2	0.26
O=C1CC[C@H](NC(=O)Cc2ccc(Cl)c(Cl)c2)C(=O)N1	-5	0.99
O=C(Nc1ccc2[nH]ncc2c1)c1cccc(CN2[C@@H]3CC[C@H]2C[C@@H](O)C3)c1	-15	2.34
Cc1cccc(CN(C(=O)C2CCCC2)c2ccc(CC(=O)NCCN3CCCC3)cc2)c1	20	-2.23
COc1ccc(CCN2Cc3ccc(N)cc3C2)cc1	1	-0.09
CC(C)c1cc(CN2CCC3(CCC(=O)N(Cc4ccccn4)C3)CC2)on1	2	-0.43
CCN1C(=O)[C@@H]2[C@H](C1=O)[C@H](C(=O)OC)N[C@@H]2c1cccc(C(F)(F)F)c1	-7	0.8
O=C(O)c1ccc(F)c2c1CN(C(=O)[C@H]1C[C@H]3C=C[C@@H]1CC3)CC2	1	-0.27
Cc1ccc(-c2cncc(C(=O)N3CCN(C)CC3)n2)c2cccnc12	-4	0.61
CCc1ncc(C(=O)NCc2nnc(CC)o2)cn1	-10	1.01
O=C(NCc1cnc2n1CCCC2)c1ccc(OC(F)F)nc1	-6	0.74
Cc1ccc(CN2CCc3nc(N4CCOCC4)ncc3C2)cc1C	-9	1.32

Structure (SMILES)	% Inhibition [%]	Z score
COc1cc2ccc1OCC(=O)N[C@@H](C)C(=O)N(C)CCCCN(C(=O)CCc1cccnc1)CCCNC2=O	-5	0.82
CC(NC1CCN(C(C)C)CC1)C(O)Cc1ccccc1 (stereo not given)	4	-0.63
CCC[C@H](NC(=O)Cc1ccc(F)cc1Cl)c1nnn[nH]1	-16	1.77
O=S(=O)(CC[C@H]1CCCO1)N1CCCC1	-4	0.52
CC(=O)N[C@H](C(=O)Nc1ccc(Cl)cc1F)C(C)C	-6	0.99
O=S(=O)(N[C@H]1CCCN(c2ccccc2F)C1)c1cccc2c1OCCO2	-7	0.75
Cc1cccc(NC(=O)N2CCN(C(=O)c3ccccc3-n3cnnn3)CC2)c1	-6	0.72
CCCc1ccc(CN2CC[C@H](NC(=O)c3ccncc3)[C@@H](O)C2)o1	-5	0.82
COc1cccc(CO[C@@H]2CN(C(=O)Cn3cncn3)CC(=O)N(CC(C)C)C2)c1	-15	1.78
CCn1c(=O)c(C(=O)NC[C@H]2CCCO2)c(O)c2ccccc21	-10	0.91
O=C1CN(CC(=O)Nc2cccc3ccccc23)CCN1	-10	1.56
CC(C)(C)OC(=O)N1C[C@@H]2OCCN(C(=O)C3CC=CCC3)[C@@H]2C1 (stereo not given in full)	-3	0.25
O=C(O)CCc1ccc(-c2ncc(F)c(N3CCOCC3)n2)cc1	-3	0.62
Cc1cn(-c2cccnc2)nc1NC(=O)N1CC[C@H](c2cccnc2)C1	-6	0.83
CC(F)(F)c1ccc(C(=O)N[C@H]2C[C@@](C)(O)C2)cn1	-4	0.49
Cc1cc([O-])c2n(Cc3ccccc3Cl)nc[n+]2n1	8	-1.07
COc1ccc([C@H]2CC(=O)Nc3c2ncn3-c2ccccc2F)cc1OCC(N)=O	-12	1.48
Cc1c(CNC(=O)c2[nH]ncc2C(F)(F)F)cnn1C	-2	0.37
CC1CC(c2ccccc2)C(C)N1C(=O)C1CC1(Cl)Cl (stereo not given)	-7	0.62
